# Publication PMC12136788
# The other results are listed elsewhere or left out.
# B1: chr22:29286963:29287064:+|CDS|ENSG00000182944|unk|FALSE|unique (ssRNA)
# RNA: GGGAGUUCUACAGUCCGACGAUCCAGAGCAGUUACUCUCAGCAGAACACCUAUGGGCAACCGAGCAGCUAUGGACAGCAGAGUAGCUAUGGUCAACAAAGCAGCUAUGGGCAGCAGCCUCCCACUAGUUACCCACCCCAAACUCAACAGAGGAUUGAGCAUCA
# B2: ENSG00000070961:be:win_5001|3pUTR|ENSG00000070961|bound_else_gene|NA|bound_elsewhere_windowed (ssRNA)
# RNA: GGGAGUUCUACAGUCCGACGAUCGAAUCAGAUUAAGAAAAUUAACACAAUUUUACCAUUUGACAUACUCUUCAUUGAAUUUAGUUUGUCUAAAAUAGUCUCACAGGUAAAAAACAUAACAACAAUGACCACCAUUGUCUUUGACAACAGAGGAUUGAGCAUCA
# B3: chr2:159230815:159230918:+|CDS|ENSG00000115183|unk|FALSE|unique (ssRNA)
# RNA: GGGAGUUCUACAGUCCGACGAUCAACCUGUUCUGUUUCUACCCUGAGUGCAAGUGUCCACAAUGGGGCACAAGUGAAGGAGCUAGAAGAAAGCAAGUGCCAAAUUCCAGUCCACUCUCAAGAGAACAGGAUAACUAAGACUGUCAACAGAGGAUUGAGCAUCA
# B4: chr8:17753977:17754079:-|CDS|ENSG00000129422|unk|FALSE|bound_elsewhere (ssRNA)
# RNA: GGGAGUUCUACAGUCCGACGAUCAAAAAAGCAGAAAUUCUAAUUAACAAGACACAUAAGCAGCAGUUUAAUAAACUCAUUACUAGCCAGGCUGUGCAUGUUACAACUCAUUCUAAAAAUGCUUCACACAGGGUUCCAAGAACACAACAGAGGAUUGAGCAUCA
# B5: ENSG00000070961:be:win_2901|CDS|ENSG00000070961|bound_else_gene|NA|bound_elsewhere_windowed (ssRNA)
# RNA: GGGAGUUCUACAGUCCGACGAUCUCCUUCAGAACAUUAUACUAUUGUUUUUAAUACCUUUGUGCUGAUGCAACUUUUCAACGAAAUAAAUGCCCGGAAAAUUCAUGGUGAAAGAAAUGUAUUCGAAGGAAUCUUUAACAAUGCCAACAGAGGAUUGAGCAUCA
# B6: chr4:38700566:38700667:+|3pUTR|ENSG00000109787|unk|FALSE|unique (ssRNA)
# RNA: GGGAGUUCUACAGUCCGACGAUCUACAAAGCCAUCUUUACAUGCAUUAAACGAGGGCUACAACAAUAUUGUUUUACAAAUACUAGCACUUUUUUUUCUGUUAUGUACUUAGUGUUAGAGGGUCAAAAUAAUCUUUCUGCUUAGCAACAGAGGAUUGAGCAUCA
# B7: chr1:246839951:246840052:-|3pUTR|ENSG00000153207|msi1|total|mutant (ssRNA)
# RNA: GGGAGUUCUACAGUCCGACGAUCAAAUGUAAAAUAAAUCUGUUUAUGGAUAUUGAGUGCAUCUUGUAUGUGCCUAAUAUUGACCGGAUGAGAUGUCUGAACAAAUUUUUAUAAUAUUGCUGUGAAGGAGCUUGCUAUUGAACCCAACAGAGGAUUGAGCAUCA
# B8: chr3:48658964:48659065:-|CDS|ENSG00000008300|msi1|FALSE|unique (ssRNA)
# RNA: GGGAGUUCUACAGUCCGACGAUCCGAUGUCUCCGACCACCUCUUCUACUCCUUUGAGCGUGGCAAUGAGCUGCAGCUGCUGGUAGUCAACCAGACCAGUGGGGAGCUGCGACUCAGCCGAAAGCUAGACAAUAACCGCCCACUCAACAGAGGAUUGAGCAUCA
# B9: chrX:71300841:71300885:+|3pUTR|ENSG00000147140|msi1_unk|total|mutant (ssRNA)
# RNA: GGGAGUUCUACAGUCCGACGAUCCCCCAUAUAUUACCCCUUCAUGUCCUAAAGAAGACAUUUUCUCUCCGAGAUUUUCAUUUCCGUGUAUCUUUAAAAAAAAAUCUUGUGUUAACUUGCCUCCAUCUUUUUCUUGGGUGAGGACAACAGAGGAUUGAGCAUCA
# B10: chr7:92086252:92086353:+|CDS|ENSG00000127914|msi1|total|mutant (ssRNA)
# RNA: GGGAGUUCUACAGUCCGACGAUCUCAUGAGAGCUUCUCAGACUGGCGAGGUGAACUACUGCUUGCCCUUCAACAAGUUUUCUCCGAAGAGCGCCGUGUUUUACCCGCAGCAUUUCGGACGGAGCUGACAGCUCCCGGUACUACCAACAGAGGAUUGAGCAUCA
# B11: chr3:15667380:15667481:-|3pUTR|ENSG00000206560|msi1|FALSE|bound_elsewhere (ssRNA)
# RNA: GGGAGUUCUACAGUCCGACGAUCUAUACAUAAAAGAUGACAUCUGAAAUAUCUGAUGUGUAUUAUAAUACCAGCUUCUGCUCUAGAACUACUUUGGGUGAAAUGGUGGUAAUAGCAAAUGACCUCCUUUAACAAGACACUCAUCAACAGAGGAUUGAGCAUCA
# B12: chr1:16124349:16124452:-|3pUTR|ENSG00000142627|msi1|total|mutant (ssRNA)
# RNA: GGGAGUUCUACAGUCCGACGAUCUUUGUUUUGUUGGACAUUUUUUUCGAAUCUUAAUUUAUUAUUUUUUUUAUAUUUAUUGUCCGAAAAUGACUUAUUUCUGCUCUGGAAUAAAGUUGCAGAUGAUUCAAACCGAUCUUGGCUCAACAGAGGAUUGAGCAUCA
# B13: chr8:103332422:103332528:+|3pUTR|ENSG00000164930|msi1|total|mutant (ssRNA)
# RNA: GGGAGUUCUACAGUCCGACGAUCUUUUUUAACAUUCCGAAUAUUACAUUUUGUAUUAUACAGUACCUUUCUCAGACAUUUUGCCGAAUUCAUUUCGGCAGCUCACCCGGAUUUUGCUGAACAUUAAAAAGUGUGACCGCGAUACAACAGAGGAUUGAGCAUCA
# B14: ENSG00000135454:stop:overlap|stop_codon|ENSG00000135454|stop_codon|NA|stop_codon (ssRNA)
# RNA: GGGAGUUCUACAGUCCGACGAUCAGCGCGUUAGUGGCCCCUACGUGGAACACUAUCUCAUGCCCUUCGGCAAGGUGUGCAGCUAGCAGGCUGAACGGCAGGCCAGAGGACUCCCGCAGGGGGUGUGCCCUCAAUCUGCAGCCUCAACAGAGGAUUGAGCAUCA
# Molecular target: T1, UNK ZnF1-6 (called full-length) (human, UniProt Q9C0B0 30-357)
# T1 sequence: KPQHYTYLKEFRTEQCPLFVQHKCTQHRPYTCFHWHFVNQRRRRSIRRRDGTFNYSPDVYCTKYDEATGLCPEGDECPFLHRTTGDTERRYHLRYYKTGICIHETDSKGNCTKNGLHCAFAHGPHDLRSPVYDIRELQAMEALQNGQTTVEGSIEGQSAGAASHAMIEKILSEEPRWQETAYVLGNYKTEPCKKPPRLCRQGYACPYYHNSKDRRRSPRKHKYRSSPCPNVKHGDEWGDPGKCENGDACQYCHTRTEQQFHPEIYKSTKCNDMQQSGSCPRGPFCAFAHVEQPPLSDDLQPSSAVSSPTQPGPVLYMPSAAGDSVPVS
# Assay: nsRBNS (natural sequence RNA bind-n-seq); RBNS binding buffer (assumed for nsRBNS): 25 mM Tris pH 7.5, 150 mM KCl, 3 mM MgCl2, 0.01% Triton X-100, 500 ug/ml BSA, 20 U/ml SUPERase-In, 4 C; UNK is unkempt and MSI1 is Musashi-1; names of the RNAs are library labels; protein concentration not given here; high values mean tight binding
row,Binder,binding signal
1,B1,1.59 enrichment R
2,B2,0.648 enrichment R
3,B3,0.586 enrichment R
4,B4,0.613 enrichment R
5,B5,0.356 enrichment R
6,B6,1.1 enrichment R
7,B7,0.415 enrichment R
8,B8,0.652 enrichment R
9,B9,0.727 enrichment R
10,B10,0.462 enrichment R
11,B11,0.4 enrichment R
12,B12,1.52 enrichment R
13,B13,0.422 enrichment R
14,B14,1.21 enrichment R
